Experimental data as given in PubChem BioAssay AID1159614 (National Center for Advancing Translational Sciences (NCATS), 2016).
The campaign covered roughly 45,000 compounds. About 65 (0.1%) were called active. The call rests on the fitted dose curve; in most records, active means well fitted activation curve with a large enough effect; inconclusive means small, poorly fitted or top-dose-only effect; inactive means no such curve, though single readings can be large or run the other way. The list shows a part of the results.

target: Galactocerebrosidase (Homo sapiens) (UniProt P54803); experiment: A Novel Cell-Based Assay to Identify Small Molecules for B -Galactocerebrosidase; conditions: 145M-Twi-hGALC-G270D cells (Twitcher mouse brain line with human GALC G270D), HMU-beta-Gal fluorescence, 48 h; series mostly up to 57.5 µM; activation: at the top concentration; further: 0% is about no effect; nearly all actives have a fitted effect of over 65% in size
How it was run: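 Live 145M-Twi cells (Twitcher mouse brain-derived, GALC-null) stably expressing human GALC-G270D, with a wild-type GALC line, were compound-treated. Residual GALC activity was then read as fluorescence from 0.1 mM final HMU-β-gal at pH 5.2; higher signal means activation.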

UniProt P54803, sequence (P54803 whole entry, looked up): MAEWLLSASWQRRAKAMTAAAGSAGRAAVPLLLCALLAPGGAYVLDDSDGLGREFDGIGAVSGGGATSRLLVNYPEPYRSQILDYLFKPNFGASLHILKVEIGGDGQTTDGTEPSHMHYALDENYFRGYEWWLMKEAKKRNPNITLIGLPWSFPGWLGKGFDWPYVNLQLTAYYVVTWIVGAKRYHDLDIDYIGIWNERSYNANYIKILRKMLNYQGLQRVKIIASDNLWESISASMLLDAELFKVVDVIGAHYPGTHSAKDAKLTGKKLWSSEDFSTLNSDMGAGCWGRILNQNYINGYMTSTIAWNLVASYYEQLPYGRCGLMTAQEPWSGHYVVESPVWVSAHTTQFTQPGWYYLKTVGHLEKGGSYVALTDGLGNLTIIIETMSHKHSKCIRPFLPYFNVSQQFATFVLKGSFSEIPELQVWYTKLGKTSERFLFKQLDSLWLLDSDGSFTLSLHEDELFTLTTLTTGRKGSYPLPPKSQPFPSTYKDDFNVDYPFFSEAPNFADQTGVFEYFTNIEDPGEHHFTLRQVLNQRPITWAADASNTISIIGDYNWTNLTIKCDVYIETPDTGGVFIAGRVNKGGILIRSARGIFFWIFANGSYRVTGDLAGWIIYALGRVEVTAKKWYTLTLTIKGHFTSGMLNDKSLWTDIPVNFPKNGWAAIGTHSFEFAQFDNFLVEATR

activation, inactive:
CCOc1ccc(Nc2nc(-c3cccc(Cl)c3)c3c(n2)-c2ccccc2OC3)cc1 0.66%
COc1ccc(N(CC(=O)Nc2cccc(Cl)c2)S(=O)(=O)c2c(C)[nH]c(=O)[nH]c2=O)cc1 2.36%
CCOCCc1nnc(NC(=O)C(=O)c2cc(C)n(-c3ccc(C)cc3C)c2C)s1 -8.81%
O=C(Nc1nc2c(F)cc(F)cc2s1)c1ccc(S(=O)(=O)N2CCc3ccccc32)cc1 -33.9%
COc1ccc(N2CCN(CCCNC(=O)C3COc4ccccc4C3)CC2)cc1 (configuration not stated) -36.3%
O=C(c1ccc2c(Cl)c3c(nc2c1)CCCC3)N1CCN(c2ccc(Cl)cc2)CC1 -7.7%
C[C@@H]1CCC[C@H](C)N1 -10.4%
CCOc1ccc(-n2c(=O)c3c4c(sc3n(CC(=O)NC(C)CC)c2=O)CCCCC4)cc1 (configuration not stated) 1.27%
Oc1cccc(O)c1 -9.3%
CCN1C(C(=O)c2ccccc2)=C(OC(=O)COc2ccc(C)cc2)c2ccccc2S1(=O)=O 0.0233%
C[C@@H](O[C@H]1OCCN(Cc2n[nH]c(=O)[nH]2)[C@H]1c1ccc(F)cc1)c1cc(C(F)(F)F)cc(C(F)(F)F)c1 -10.1%
O=C(Nc1ccc(F)cc1)Nc1csc2c1CCCC2 -11.6%
Cc1ccc(CNC(=O)CSc2nc3c(sc4ccccc43)c(=O)n2CCCC(=O)NCCO)cc1 -18.1%
O=C(Cc1ccc(-c2ccccc2)cc1)NCCS(=O)(=O)N1CCN(c2ccc(F)cc2)CC1 -13.9%
Cn1ncc2c(N3CCN(c4ccc(F)cc4)CC3)ncnc21 -0.775%
COc1cc(-c2nc3sccn3c2Nc2c(C)cccc2C)ccc1O -13.4%
Cc1cc(O)cc(C)c1Cl -17.8%
CCOc1ccc(CCn2c3c(c(=O)[nH]c2=O)C(NC(=O)c2cccc(F)c2)(C(F)(F)F)C(=O)N3)cc1OCC (configuration not stated) -8.71%
Cc1c(CCNC(=O)c2c(F)cccc2F)sc2nc(-c3ccc(F)cc3)nn12 -17.8%
CC(=O)N1CCCC1c1nc2ccccc2n1Cc1ccccc1Cl (configuration not stated) 2.91%
O=C1Cc2cc(S(=O)(=O)N3CCN(c4cccc(Cl)c4)CC3)ccc2N1 -5%
CCn1c(C(=O)NCCc2ccc(S(N)(=O)=O)cc2)cc2sc(Cl)cc21 -7.65%
CC(=O)N1CCCc2ccc(NS(=O)(=O)c3cccc(Cl)c3)cc21 -8.93%
CCCCN(CCCC)CC(O)c1cc(Cl)cc2c1-c1ccc(Cl)cc1/C2=C/c1ccc(Cl)cc1 (configuration not stated) -13.2%
COc1cccc(CSc2nc3ccncc3n2CC(=O)Nc2ccc(OC)c(OC)c2OC)c1 -14.5%
CCOC(=O)c1cnc2c(ccc3ccccc32)c1Nc1ccc(C(C)=O)cc1 -6.71%
Cc1cccc(C)c1-n1ncc(C(=O)NCCCN2CCC(C)CC2)c1C1CCN(C(=O)OC(C)(C)C)CC1 20.9%
Cc1cc(Nc2ccc(Br)cc2)nc(C)n1 -5.79%
Cc1cccc(OCc2nc(CC(=O)Nc3ccc(Cl)cc3)cs2)c1 -10.2%
CCC1CN(C(=O)N2CCC(C(=O)NCCc3ccc(OC)cc3OC)CC2)c2cc(C)ccc2O1 (configuration not stated) -27.5%
Cc1cc(C)nc(-n2nc(C)c3c2N(Cc2ccccc2F)C(=O)CC3c2ccc(Cl)cc2)n1 (configuration not stated) -10.2%
COc1cccc(NC(=O)CCN2C(=O)c3ccccc3Sc3ncccc32)c1 4.19%
CCOC(=O)c1sc2ccccc2c1S(=O)(=O)NCc1ccccc1OC -5.8%
CCc1ccccc1NC(=O)C1CCN(S(=O)(=O)c2cn(C)cn2)CC1 -8.26%
O=S(=O)(c1ccc(Cl)cc1)c1nc(-c2cccs2)oc1N1CCCCC1 -20.5%
CCc1cc2c(cc3c(=O)n(CC(=O)NC(C)c4ccccc4)ncn32)s1 (configuration not stated) -1.37%
COc1ccccc1CNC(=O)Cc1csc2nc(-c3ccc(F)cc3)cn12 -15.1%
Cc1cc2c(s1)Nc1ccccc1N=C2N1CCN(C)CC1 -7.92%
Cc1ccccc1C(=O)Nc1cc(C)c(O)c(-c2nc3ccccc3o2)c1 -18.5%
CCC1CN(C(=O)Nc2ccccc2F)c2cc(C)ccc2O1 (configuration not stated) -11%
CCOc1ccc(-c2nc(Cn3c(=O)cc(C)c4c(C)nn(-c5ccccc5)c43)c(C)o2)cc1 4.01%
CCCCCCn1nnc2sc(-c3ccccc3)cc2c1=O -15.4%
CC1CCN(CC2CCN(C(=O)NCc3ccccc3)CC2)CC1 -7.73%
COc1ccc(CNC(=O)CCNS(=O)(=O)c2ccc3c(c2)oc(=O)n3C)cc1 -26.3%
COc1ccc(C2CC(=O)c3cc(-c4nc(-c5cccc([N+](=O)[O-])c5)cs4)c(=O)n(-c4ccccc4)c3C2)cc1 (configuration not stated) -4.38%
CCn1cc(C(=O)N(C)Cc2ccccc2)c(=O)c2cc(S(=O)(=O)N3CCc4ccccc4C3)ccc21 -8.3%
CCN1c2ccccc2-c2nc(SCC(=O)Nc3cccc(C)c3C)ncc2S1(=O)=O -14.5%
COc1cc(C)ccc1OCCSc1nc2ccc(NC(=O)c3ccco3)cc2s1 -39.1%
CCc1ccc(NC(=O)CSc2ccnc(=O)[nH]2)cc1 -19.3%
Cc1nn(C)c(C)c1S(=O)(=O)N(CC(=O)NCCc1ccccc1)c1ccc(C(C)C)cc1 -11.1%
O=C(NCCc1ccccc1)c1ccc2c(c1)N(Cc1ccc(Cl)cc1)C(=O)CS2 -17.6%
O=C(CSCc1ccc(F)cc1)N1CCN(c2ccccc2F)CC1 -1.58%
Cc1cc2c(cc1S(=O)(=O)NCc1ccc(F)cc1)n(C)c(=O)c(=O)n2C -4.27%
COc1ccc(NC(=O)c2ccco2)cc1NC(=O)COc1ccc(C)c(C)c1 -1.02%
Cc1cccc(N2C(=O)CC(c3ccc(F)cc3)C3=C2COC3=O)c1 (configuration not stated) -3.27%
CCCCNC(=O)c1nn(C)c2c1CSc1ccccc1-2 -6.41%
Cc1ccc(C(=O)c2cn(Cc3cccc(Cl)c3)c3nc(C)ccc3c2=O)cc1 -11.2%
Cc1cn2c(=O)cc(COC(=O)c3ccc(NC(=O)COc4ccccc4C)cc3)nc2s1 -3.74%
CCOC(=O)c1cc(-c2ccccc2)n(-c2cccc(C(=O)Nc3cccc(SC)c3)c2)c1C -5.44%
Cc1ccc(-c2nn3c(-c4ccccc4C)nnc3c3ccccc23)cc1 -15.1%
CCC(=O)Oc1ccc2c(c1)CC[C@@H]1[C@@H]2CC[C@@]2(C)[C@H]1C[C@@H](OC(=O)CC)[C@@H]2OC(=O)CC -19.7%
COc1ccc(CCC(=O)NCCc2csc(-c3ccc(F)cc3)n2)cc1 -27.7%
O=C(Cn1ncc2c([nH]c3ccccc32)c1=O)NCCCN1CCN(c2ccc(F)cc2)CC1 -14.3%
CCc1ccccc1NC(=O)N1CCOc2ccccc21 -20%
COc1cc(NC(=O)CC2C(=O)N(c3ccccc3)C(=O)N2Cc2ccc(F)cc2)cc(OC)c1 (configuration not stated) -10.9%
COc1ccc(OC)c(NC(=O)CSc2nc(=O)n(CCN(C)C)c3c2CCC3)c1 -17.5%
CC1CCc2c(sc(NC(=O)Cc3ccccc3)c2C(=O)Nc2ccc(Cl)cc2)C1 (configuration not stated) -23%
CCc1ccc(-n2c(=O)c3c4c(sc3n(Cc3ccccc3C#N)c2=O)CCCC4)cc1 -10.9%
CCCn1c2ccccc2c2cnn(CC(=O)Nc3cc(C)c(Cl)cc3OC)c(=O)c21 6.06%
CC(=O)Nc1ccc(NC(=O)c2oc3c(c2C)-c2nn(Cc4ccccc4Cl)cc2CC3)cc1 -16.4%
CCCCC(=O)Nc1ccc2nc(SCC(=O)N3CCc4ccccc43)sc2c1 -18.7%
CCc1ccc2nc(N(Cc3cccnc3)C(=O)c3ccc(C#N)cc3)sc2c1 -19.3%
Cc1ccc(N2CCN(C(=O)c3nn(C)c4c3CS(=O)(=O)c3ccccc3-4)CC2)c(C)c1 -18.2%
Cc1ccc(Nc2ccc3cc(S(=O)(=O)N4CCC(C)CC4)ccc3n2)c(Cl)c1 -17.3%
CCc1cccc(NC(=O)CCn2c(=O)c3cccn3c3cccnc32)c1 2.17%
CCOc1ccc(-n2cc(-c3ccccc3)c3c(NCCc4ccccc4)ncnc32)cc1 -4.43%
Cc1cccc(NC(=O)Cn2nc(-c3ccccc3)c3cnc4ccccc4c32)c1 -6.49%
CCOC(=O)N1CCc2c(sc3c2c(=O)n(Cc2ccccc2)c(=O)n3CC(=O)Nc2cccc(CC)c2)C1 -9.29%
CCOC(=O)c1ccc(NC(=O)Cn2nc3c4ccccc4n(Cc4cccc(F)c4)cc-3c2=O)cc1 -17.1%
O=C(CCn1c(=O)c2sccc2n(Cc2ccccc2F)c1=O)NCc1ccc2c(c1)OCO2 -13%
COC(=O)Cn1c(C2CC(=O)N(c3c(C)cccc3C)C2)nc2ccccc21 (configuration not stated) 3.91%
Cc1cc(NC(=O)CCc2nc3cccnc3n2-c2ccccc2)ccc1Br -34.7%
O=C(CCNS(=O)(=O)c1ccc2c(c1)CCCC(=O)N2)Nc1cccc(Cl)c1 -21.1%
COc1ccc(C(=O)c2c(N)c(-c3nc(-c4ccc5c(c4)OCO5)cs3)c3ccccn23)cc1 -15%
O=C(NCCc1ccccc1)c1ccc(CS(=O)Cc2ccc(Cl)cc2)o1 (configuration not stated) -10.1%
Cc1ccccc1NC(=O)Cn1cc(C(=O)c2ccco2)c2ccccc21 -16.1%
Cc1ccc(C)c(N2CCN(c3ncnc4c3nc3n4CCCC3)CC2)c1 -23.4%
O=C(Nc1ccc(F)cc1F)C1CCN(c2ncccn2)CC1 -3.8%
O=S(=O)(c1ccc(C2CCCCC2)cc1)N1CCN(c2ccc(Cl)c(Cl)c2)CC1 -6.78%
COc1ccc(-c2nc(CNC(=O)NC3CCCCC3)c(C)o2)cc1 -4.4%
COc1cc(C(CC(=O)Nc2ccc(C)c(F)c2)N2Cc3ccccc3C2=O)cc(OC)c1OC (configuration not stated) -8.42%
CCN(CC)c1ncnc2c1cnn2-c1cc(Cl)ccc1C -17.5%
O=C1OCC2=C1C(c1cccc(Cl)c1)CC(=O)N2c1ccc(C(F)(F)F)cc1 (configuration not stated) -3.47%
CCOc1ccccc1NC(=O)C1CCN(S(=O)(=O)c2c(C)noc2/C=C/c2ccco2)CC1 -13.9%
CCOC(=O)c1c(C)[nH]c(C)c1S(=O)(=O)N(C)CC(=O)Nc1ccc(OC)cc1 -9.36%
O=C1c2ccccc2C(=O)C1c1ccc(Br)cc1 1.67%
Cc1cccc(Cn2cc(S(=O)(=O)c3cccc(Cl)c3)c(=O)c3cc(F)c(N4CCOCC4)cc32)c1 -11.1%
